Test results reported in the supplement of paper PMC3334620.
The full ranking holds about 33,000 sequences; the median of “E-score (-0.5 to 0.5)” is about -0.054, and the highest 2% start at about 0.35. The list shows a part of the results.

The sequences below were run against T1, Stb5 (UniProt P38699) (assay: PBM E-score (8-mer binding enrichment) (E-score (-0.5 to 0.5)); higher = stronger / more preferred TF binding; most listed sequences are background and not binding sites). Details: protein concentration: 200 nM; construct: GST-full length.
T1 sequence: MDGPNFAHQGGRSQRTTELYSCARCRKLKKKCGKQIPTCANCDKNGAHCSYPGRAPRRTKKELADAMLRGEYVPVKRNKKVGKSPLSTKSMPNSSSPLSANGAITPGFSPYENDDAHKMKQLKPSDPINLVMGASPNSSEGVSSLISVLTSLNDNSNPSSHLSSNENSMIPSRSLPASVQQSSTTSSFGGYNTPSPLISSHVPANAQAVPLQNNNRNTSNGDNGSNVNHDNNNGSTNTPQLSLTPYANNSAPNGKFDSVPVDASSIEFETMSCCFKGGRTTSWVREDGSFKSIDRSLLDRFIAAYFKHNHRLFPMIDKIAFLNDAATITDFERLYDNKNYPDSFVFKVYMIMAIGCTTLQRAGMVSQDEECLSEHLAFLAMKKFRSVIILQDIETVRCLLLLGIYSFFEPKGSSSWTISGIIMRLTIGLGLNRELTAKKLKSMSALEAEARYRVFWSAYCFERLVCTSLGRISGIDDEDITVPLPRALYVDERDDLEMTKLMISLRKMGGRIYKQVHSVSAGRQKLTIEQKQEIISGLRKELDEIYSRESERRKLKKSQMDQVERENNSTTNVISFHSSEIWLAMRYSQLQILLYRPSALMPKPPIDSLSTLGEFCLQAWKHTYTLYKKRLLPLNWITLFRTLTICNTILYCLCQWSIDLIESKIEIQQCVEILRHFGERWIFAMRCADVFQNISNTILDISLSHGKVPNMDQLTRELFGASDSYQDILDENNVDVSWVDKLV
Method in brief: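 Yeast transcription factors, full-length or as DNA-binding domains, were expressed with a GST tag using PURExpress in vitro transcription/translation. At about 100-200 nM they were applied to universal all-10-mer Agilent arrays, double-stranded by primer extension on fresh or once-stripped slides. Fluorescent anti-GST detected bound protein, and masliner normalised the scans. E-scores for ungapped eight-base words, pooled with reverse complements, came from the Universal PBM Analysis Suite.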

Sequence	PBM E-score
GAAAGTAC	0.0695
AGCGAAAG	-0.138
AGACAATA	0.0255
ACCGCTAA	0.263
CATTATCA	-0.186
GCGAGAGC	-0.0606
AATTTAAT	-0.0265
CAAATGCA	-0.234
AATTTGCT	-0.197
GCAAATGA	-0.15
CGAAAGAG	-0.0144
TAGTATGA	-0.0857
CCGAGCCA	0.0835
CTCGGTCA	0.0495
AAGTGATC	-0.0808
ATATTGGA	-0.0664
TCAGGAAA	-0.121
GATTACGC	0.0466
TAGTGGGA	-0.176
ACCCGGGG	0.185
CAGAAGAG	-0.369
ACTATCTA	-0.0951
ATTCCGTG	0.00715
AAATTTGT	-0.147
GAGAAGAC	0.0739

Sequence	PBM E-score
AGGAAGAT	-0.00894
CCGTCGCG	0.311
GGTGTTTA	0.425
CAGCCTCG	-0.124
GAGCAAGA	-0.134
CCGAGAGG	-0.0851
GTTCGGGA	0.192
CCTGCCCG	-0.0878
AGAATGTG	-0.184
GTGAGATA	0.0545
CCACGAAG	-0.143
ATCCGAGC	0.132
CCGTGCCG	0.202
CTTTACCA	-0.104
AGACTAAA	0.0418
CACGCCAG	-0.15
CGTACAAA	-0.119
CCATGCCC	-0.151
CTGCGCAG	-0.271
ATCTTCTC	-0.237
CCTGGATC	-0.132
CTCACGCA	-0.17
CGAACCTA	0.0665
ACCCGCAA	0.0571
ACTTGTTA	-0.206

Sequence	PBM E-score
ATTATAAC	0.271
CTGGGCCA	-0.209
AGGAGTCG	-0.179
GTGTTAGA	0.0904
GCGACTGA	-0.188
AAATCTAG	-0.0991
CAACGATA	-0.125
ATGCCAAC	-0.223
AGATCCGC	0.335
CAGCACAG	-0.197
TCAGGCGA	-0.158
ATTAGTGC	-0.00685
GCTGGCAA	-0.0853
AATAGGGA	-0.203
CACAGCGG	0.286
GAACAATA	-0.00358
CAAGAATA	0.163
ATCTACGC	0.0993
TAAAAGAA	-0.0275
TGGTAGAA	-6e-05
CAGGCGGG	0.31
CATACTGC	-0.045
CCCTACCG	0.0937
ACCGCTCC	0.323
ACAGTCAT	-0.117

Sequence	PBM E-score
AACAGTCA	-0.127
CGGTAACC	0.165
AGTGGCAC	-0.189
GTTCAAAC	0.0508
ATGAAGAG	-0.154
AAGTGAGG	-0.175
CTTCGAAA	-0.113
ATGACTCA	-0.218
AAGCCGTC	0.243
GAACCTGC	-0.191
AGATTTAC	-0.0949
ACTGTCAT	-0.224
AAGAACAA	-0.00493
AAACAGGC	-0.0952
GGAGAGAA	0.00508
ATGGTACC	0.14
TGCACACA	-0.204
CTTCGATC	-0.0804
CATGGCCG	0.187
CACAACGG	0.166
CCTTGAGC	-0.116
GATCCGTA	0.0229
ATGGAAGG	-0.0839
AGAAATAA	0.0401
GCCATAGA	-0.177

Sequence	PBM E-score
AATGGTGA	-0.231
AGACTTAA	-0.288
CGGGCTGA	0.268
AATCTTAA	-0.311
CGGCGAAA	0.322
ATCCGGAG	0.338
CGCCTGTA	-0.0623
AATAAATG	-0.0719
AAACAATG	-0.214
AGAAGTCG	-0.00257
CATGTCTA	-0.124
GTGGGCTA	-0.172
GTGGATGA	-0.322
CCCACCGG	0.303
ACATGCAT	-0.0948
TTATGGAA	-0.107
GTCAGAGA	-0.214
ATTGACGA	-0.223
ATGCAAAC	0.0134
CCCATAAA	-0.0614
CAGCCTGA	-0.0968
ACTTTTAC	0.0445
ACAGGAGT	-0.0725
AGCACGGC	0.108
ACTTAGAA	-0.195

Sequence	PBM E-score
GAGTCCCC	-0.12
ATCCAATC	-0.0691
TACGCTGA	-0.0453
GAGCAGGC	-0.173
ATCATAAG	-0.0407
TAGGCCAA	-0.145
AGCCCCGA	0.397
ATTCGATC	-0.0404
GACAGGCA	-0.142
ACTGAAGT	-0.0569
GTGGGTAA	-0.154
CGGTGTAA	0.438
AAAGTATT	-0.252
CACGCGCC	0.0996
GGTATAGA	0.0987
ATGTTTAC	-0.0155
ATAACTAA	-0.0869
CACGTCAG	-0.163
CGTAGGAG	0.125
ACTGGTCC	0.2
GGAGGTGA	0.00073
TCCATCAA	0.0779
AAACCTTG	-0.246
GGCTGCAC	-0.12
GGCATTAA	0.317

Sequence	PBM E-score
AGTCAACC	-0.11
GATGCTTA	0.0976
GCGCAGAA	-0.178
AAGTATCT	-0.104
CGCTCAAC	-0.0617
ACCCCCGC	0.398
AGCAGGAT	-0.108
ATAATAAT	-0.0963
ACATTCGA	-0.0522
GTTGGGAA	-0.19
GAACAGAC	0.0276
GGGATATA	0.272
AGCCGGGC	0.134
TACAGAGA	-0.241
CGTTCCAG	0.0717
ACTTGGGG	-0.141
CCAGAGAA	-0.209
GCAACTGC	-0.112
AATGCCCA	-0.283
ATCTCGGC	0.0388
GCCCATTA	-0.218
ACAATAAG	0.0543
CAAAAAAC	-0.0944
GACAAACC	-0.00903
AGTATAGA	0.0183

Sequence	PBM E-score
AATGTACG	-0.194
CCTTCTAC	-0.12
AAGACAAT	-0.0674
ACAGTTCC	0.0786
GTGCTTCA	-0.109
CGCGGCCG	0.191
CTTCTTGC	-0.122
ACGCCCCA	-0.22
CGCCAGCC	0.206
ACACTGGC	-0.298
GGGAAGCA	-0.0216
CGGCGGAC	0.377
CCGGGAGA	0.0459
CAATTTAC	0.127
GTCTTAAC	0.0408
CCCCAGTA	-0.0689
CCGAAACG	0.275
CCAAGAGC	-0.177
ATAGGCTC	-0.0838
CGTAGTGC	0.174
CGAGAACA	-0.0167
GATATGCC	-0.0103
CCGAGCAA	0.0202
CAGATAGA	-0.213
CCGCACCA	0.199

Sequence	PBM E-score
GGAAGCCA	-0.138
CCGTGGTC	0.0916
TGCCGGAA	0.179
AAATTCCG	0.251
GATCCACA	0.0127
GCTGTTTA	0.0813
TCACACCA	-0.219
GACGACTA	-0.218
ACACTATC	-0.122
AGCCGGTC	0.0141
CAGAATGC	0.0745
CCTCTCCA	-0.3
ACGGGTGA	0.0646
CGTCTTCA	0.037
GCCCACGC	-0.298
AAATGTAC	-0.0592
ACGAGTCA	-0.213
CATAATTC	0.0212
CGAAGAAA	-0.0335
TAAACTAA	0.0107
AGTGATCC	-0.0706
TCACTCAA	-0.211
AAACGGGC	0.19
ATATTTCG	0.0939
AAGTATGC	-0.0425

Sequence	PBM E-score
GCTTACCC	-0.0687
GCTTAATA	-0.0753
ATGCCGTC	0.352
ATGGTCTG	-0.239
CATTCGAA	-0.0861
ATTCGTTG	-0.0965
GATGTAAC	0.0613
GATGGGAC	0.0679
TCAAAACA	-0.0946
CTTTTCGC	0.113
TCCGACAA	0.324
CCTGCCAC	-0.224
TATAAGAA	-0.0144
CGGGTGAG	0.0766
ATGCTCTA	0.0757
AATTTGTC	-0.0381
CTTATAAG	0.107
GAATGAAA	0.0556
ACTAGATG	-0.193
CGGTGTCA	0.471
AACACTCC	0.107
AAAGCTCC	0.276
CTCCGACC	0.375
ACCCGCTG	0.137
CCCCGGCG	0.328

Sequence	PBM E-score
AACGGGTG	0.155
AGCTAAGC	-0.136
CAACTCCG	0.342
ATCCGCAA	0.00079
CTCTTGCC	-0.148
AACGTAGA	-0.159
CAGCAACA	-0.0193
AGGCACCC	-0.149
CCGGGCAC	0.246
ATCAATCG	-0.122
CGATGGTC	-0.118
ATTCGGAG	0.201
CCTTGTAG	-0.188
GGGCCCGA	0.193
CATAATGA	-0.0551
ATTGTGCA	-0.144
CTCTCAAG	-0.254
GAAGTCAC	-0.0552
AGCTCTTC	0.0182
ATCGACTG	0.0171
CTCCCCCC	-0.219
TATTTACA	-0.157
CCTGTCCG	0.0505
CGGGAGCC	0.00363
GGAAGGCC	0.238

Sequence	PBM E-score
GTGCAAAC	0.193
CATATGCA	-0.19
CCTGCTTC	-0.0253
GTGTAGCA	-0.172
ACCCAAAG	-0.113
CAAGAGTG	-0.186
CGTCAACA	-0.00929
AGGTGATA	0.164
AGCTTAGA	-0.106
TACGAAGA	-0.204
AGCTTACT	-0.285
ACATATTG	-0.171
AAGGCAGC	-0.118
CCAGAAAG	-0.0818
CACCCGGG	0.187
ACCCACAA	-0.14
GACTGACC	-0.0287
AGAGCAGC	-0.242
CAACTCGG	0.0103
TCCATTCA	-0.163
GGCTGCTA	-0.0785
AGTGCCAT	-0.0439
GACCAATA	0.0169
CCGCCCTC	0.272
GCACTAGC	0.137

Sequence	PBM E-score
CCGTCGGA	0.37
CAAGTTTC	-0.0674
ACCATGCT	-0.14
CTAGCTGC	-0.0672
CCTTATTA	-0.0929
AAGGCATT	-0.00479
ACCCACTC	-0.0808
CCCCAGAG	-0.174
AATTGACT	-0.184
CAGGACTC	-0.196
AAAGGTGT	0.146
CACGTACC	-0.0861
ACCAGCCA	-0.248
ATCGGCCA	0.179
GACGACGC	-0.029
CGTGTCAC	-0.106
ATACGTCA	-0.00151
AGCGGTCG	0.22
ACCTCCCA	-0.199
ATGTTCTA	-0.0932
AAACTTGC	0.118
GTTCACCA	-0.133
AATTCATC	0.0312
AGCCCCAG	-0.162
AATGAGCA	-0.191

Sequence	PBM E-score
GAAAACCC	0.278
CGTTCTTC	-0.00265
GCGAAGAC	0.163
GATAATAA	0.189
CGGAAGTA	0.352
CGGGCATC	0.122
GATATTGC	0.155
CCCCACCG	0.221
GCCGAAGC	0.215
AGGTGCCG	0.179
CAGTAAGC	-0.133
CGCTAAAC	0.139
ATGCCCAG	-0.192
CCGTAGAG	0.0676
AGGAGTAC	-0.166
ACCAATGA	-0.0818
CACCATTC	-0.283
AATTTTAT	0.292
ATAGTTGG	-0.0158
